Laboratory results: PubChem BioAssay AID1508624 (National Center for Advancing Translational Sciences (NCATS), 2021)
About 120 (0.25%) of roughly 48,000 compounds were called active. Roughly 4% stayed inconclusive and do not appear here. The call rests on the fitted dose curve; in most records, active means well fitted activation curve with a large enough effect; inconclusive means small, poorly fitted or top-dose-only effect, or another doubt; inactive means no such curve, though single readings can be large or run the other way. Some of the results follow.

assay: Primary qHTS for Identification of Small Molecule Activators of Huntingtin-Antisense Promoter Activity; conditions: HEK293 HTT-AS promoter firefly luciferase reporter, 24 h; series mostly up to 57.5 µM; activity change, positive = activation: at the top concentration; further: nearly all actives have a fitted effect of over 55% in size
Outline: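 HEK293 Fluc reporter, 2,500 cells/well, 24 h pre-culture; cpds up to 57.5 uM final, 24 h 37 degrees C; Dual-Glo, 10 min RT; normalized vehicle = 0%, zero RLU = -100%.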

Compound | activity change, positive = activation
CCOC(=O)c1cccc(Nc2cc(C)nc(C)n2)c1 | inactive: 3.35%
Cc1nnc2c3ccccc3nc(N3CCN(c4cccc(Cl)c4)CC3)n12 | inactive: -20.8%
CCOCCCn1c(=N)c(C(=O)NC2CCCC2)cc2c(=O)n3cccc(C)c3nc21 | inactive: -4.01%
Cc1cccc(-n2ncc3c(Nc4c(C)cc(C)cc4C)ncnc32)c1 | inactive: -22.7%
Cc1noc(Cn2c(=O)c3ccccc3n(CC(=O)Nc3ccccc3C(F)(F)F)c2=O)n1 | inactive: -9.06%
Oc1ccc(Nc2nc(-c3ccc(Cl)cc3)nc3ccccc23)cc1 | inactive: -20.3%
COc1ccccc1CNC(=O)CN1C(=O)CCCc2ccccc21 | inactive: 3.84%
CCCCOc1ccc(C2c3c(oc4ccccc4c3=O)C(=O)N2c2nc(C)c(C(=O)OCC)s2)cc1OC (stereo not drawn) | inactive: -2.82% [at 11.5 µM, percent change from vehicle, -100% = no light]
CCN(C(=O)c1c(O)c2c(Cl)cccc2n(C)c1=O)c1ccccc1 | inactive: -0.165%
COc1ccc(NC(=O)C2(S(=O)(=O)c3ccc(C)cc3)CC2)c(OC)c1 | inactive: -6.13%
CC(=O)NC(=O)c1ccccc1O | inactive: -7.75%
COc1ccc(-c2c(C)c3ccc(O)c(CN4CCCCC4C)c3oc2=O)cc1OC (stereo not drawn) | inactive: -12.8%
CCCN(CCC)C(=O)Cn1c(=O)n(-c2ccc(CC)cc2)c(=O)c2c3c(sc21)CCC3 | inactive: -22.5%
CCSc1ncc(Cl)c(C(=O)Nc2ccc(S(=O)(=O)N3CCCCC3CC)cc2)n1 (stereo not drawn) | inactive: -25.6%
Cc1ccc(CN(C(=O)COc2cccc(Cl)c2)c2ccccn2)o1 | inactive: -20.1%
CCOc1ccc(NC(c2ccc(Cl)cc2)c2nnc(-c3cccc(F)c3)o2)cc1 (stereo not drawn) | inactive: -2.92%
COc1cc(O)ccc1-c1nc2ccc(Br)cn2c1Nc1ccccc1C | inactive: -40.6%
O=C(Nc1ccccc1F)C(c1ccccc1)N1Cc2ccccc2C1=O (stereo not drawn) | inactive: -0.107%
O=C(CSc1nccn1Cc1ccc(F)cc1)NC1CCCC1 | inactive: -14.9%
CCCOC(=O)c1ccc(NC(=O)C2CC(=O)N(c3ccc(C)cc3)C2)cc1 (stereo not drawn) | inactive: 6.28%
CCOC(=O)C1CCN(c2nc3c(S(=O)(=O)c4ccc(CC)cc4)nnn3c3ccc(Cl)cc23)CC1 | inactive: -22.4%

Compound | activity change, positive = activation
CC(=O)c1ccc(NC(=O)C2CCCN(S(=O)(=O)c3ccc(Br)s3)C2)cc1 (stereo not drawn) | inactive: 0.765%
CCOc1ccc(NC(=O)c2sc3nc4n(c(=O)c3c2C)CCCC4)cc1 | inactive: 7.36%
Cc1cc(Cl)ccc1NC(=O)CS(=O)(=O)c1cccc2nsnc12 | inactive: -20.2%
Cc1cccc(NC(=O)c2ccc(F)c(S(=O)(=O)NCc3ccc4c(c3)OCO4)c2)c1 | inactive: -20.1%
Cc1ccn2c(Nc3ccc4c(c3)OCO4)c(-c3ccc(C)o3)nc2c1 | inactive: 22.9%
Cc1ccc(C(=O)NCCSc2c[nH]c3ccccc23)cc1C | inactive: -2.12%
CCOc1ccc(N(CC)C(=O)c2cc3c(s2)-c2ccc(Cl)cc2SC3)cc1 | inactive: -11.5%
Cc1cc(C)cc(NC(=O)CSc2oc(-c3cccs3)nc2S(=O)(=O)c2ccc(Br)cc2)c1 | inactive: 9.23%
CCc1ccc(NCc2cc3ccc(OC)cc3n(CC(=O)Nc3ccccc3OC)c2=O)cc1 | inactive: -13.8%
COC(=O)c1sc2cccc(F)c2c1S(=O)(=O)NC(C)c1ccccc1 (stereo not drawn) | inactive: -12.1%
COc1ccc(OCc2nc(-c3ccc(OC)c(OC)c3)no2)cc1 | inactive: -20.8%
CC(=O)Nc1ccc(C)cc1-c1nc2ccccc2n(Cc2cccc(Br)c2)c1=O | inactive: -1.74%
CC(=O)Nc1c(C)nn(-c2ccccc2)c1N1CCC(C(=O)Nc2ccc(C)cc2Cl)CC1 | inactive: 25.3%
COc1cccc(-n2ccnc2SCC(=O)Nc2nc3ccc(C)cc3s2)c1 | inactive: -41.7%
C1CCC(C(CC2CCCCN2)C2CCCCC2)CC1 (stereo not drawn) | inactive
CCCc1nc2nc(C)c(NS(=O)(=O)c3ccc(C)c(C)c3)c(=O)n2[nH]1 | inactive: -3.07%
CCOC(=O)C1CCCN(C(=O)c2ccc(C)c(NC(=O)c3nsc4ccccc34)c2)C1 (stereo not drawn) | inactive: -20.3%
COc1cccc(NC(=O)CSc2nnc3[nH]c(=O)cc(-c4ccccc4)n23)c1 | inactive: 37.8%
CC(=O)Nc1ccc(NC(=O)c2ccc3c(c2)CCN3S(=O)(=O)c2ccc(Cl)cc2)cc1 | inactive: -35%
CCc1ccc(NS(=O)(=O)c2cc(Br)cc3c2N(C(C)=O)CC3)cc1 | inactive: -1.14%
COc1ccc(CCNc2oc(/C=C/c3ccc(OC)c(OC)c3)nc2C#N)cc1 | inactive: -13.9%

Compound | activity change, positive = activation
CCCOc1ccccc1C(=O)N1CCCCC1CCN1CCCCC1 (stereo not drawn) | inactive: -13.2%
CCC(=O)N1c2ccccc2CC1C(=O)NCCc1ccccc1OC (stereo not drawn) | inactive: -11.4%
CCc1ccc(-n2nc(C)c3c(C(=O)Nc4ccc(Cl)cc4)cc(C)nc32)cc1 | inactive: 5.33%
CN1CC(=O)N2[C@H](c3ccc4c(c3)OCO4)c3[nH]c4ccccc4c3C[C@@H]2C1=O | inactive: -2.19%
Cc1ccc(C)c(-c2ccc(=O)n(C(C)C(=O)Nc3ccccc3C(F)(F)F)n2)c1 (stereo not drawn) | inactive: -27.2%
CCCCNC(=O)CSc1nc(-c2ccc(OC)cc2)cc(C(F)(F)F)n1 | inactive: -8.23%
O=C(NC1CC(=O)N(c2cccc(F)c2)C1)c1ccc(S(=O)(=O)N2CCCCC2)cc1 (stereo not drawn) | inactive: -13.7%
Cc1ccc(OCC(=O)Nc2nnc(SCc3cc(=O)n4cc(C)ccc4n3)s2)cc1 | inactive: -12.4%
COC(=O)c1ccccc1NC(=O)CCn1c(=O)c2cccn2c2cccnc21 | inactive: -10.2%
COc1ccc(C(=O)Nc2cc(-c3nc4ncccc4o3)ccc2C)cc1Br | inactive: -22.3%
O=c1c2sc3ccccc3c2n(Cc2ccccc2F)c(=O)n1-c1ccccc1Cl | inactive: -12.2%
COc1cccc(CNC(=O)CSc2nc3ccccc3nc2Cc2ccccc2)c1 | inactive: -16.3%
CCN(CC)S(=O)(=O)c1ccc2nc(NC(=O)c3ccccc3OC)sc2c1 | inactive: -31.3%
Cc1nnc(N2CCC(C(=O)NCc3ccc(F)cc3)CC2)c2nn(-c3ccc(Cl)cc3)c(C)c12 | inactive: -39.5%
Cc1ccc2c(c1)cc(C(=O)NCc1ccc(F)cc1)n2C | inactive: 2.1%
COc1ccccc1N1CCN(c2ccc(=O)n(CC(=O)O)n2)CC1 | inactive: -7.33%
CCOCC(=O)Nc1ccc(-c2cn3c(C)csc3n2)cc1 | inactive: -80.2%
CCCCOc1ccc(C(=O)NCCS(=O)(=O)N2CCN(c3ccccc3OC)CC2)cc1 | inactive: -46.1%
CC(C)NCC(O)COc1ccc(CCOCC2CC2)cc1 (stereo not drawn) | inactive
CN(C)c1ccc(C(CNC(=O)c2ccccc2Cl)N2CCc3ccccc32)cc1 (stereo not drawn) | inactive: -2.36%
O=C(COc1ccc(Cl)cc1)Nc1ccc(O)c(-c2nc3ccccc3s2)c1 | inactive: -1.57%
